# Assay results published in PubChem BioAssay AID485360 (National Center for Advancing Translational Sciences (NCATS), 2010).
# Hit rate of the full screen: of about 230,000 compounds, about 1,500 (0.65%) were called active. Inconclusive means that the source gave no clear call. Such entries were picked first, then a sample of the others. Calls come from the whole dose curve; as a rule, active = well fitted inhibition curve with a large enough effect; inconclusive = small, poorly fitted or top-dose-only effect; inactive = no such curve, though single readings can be large or run the other way. Potencies of inconclusive entries are doubtful fits and often do not repeat.
# Molecular target: Lethal(3)malignant brain tumor-like protein 1 (Homo sapiens) (UniProt Q9Y468)
# Chain of UniProt Q9Y468 (Q9Y468 whole entry, looked up): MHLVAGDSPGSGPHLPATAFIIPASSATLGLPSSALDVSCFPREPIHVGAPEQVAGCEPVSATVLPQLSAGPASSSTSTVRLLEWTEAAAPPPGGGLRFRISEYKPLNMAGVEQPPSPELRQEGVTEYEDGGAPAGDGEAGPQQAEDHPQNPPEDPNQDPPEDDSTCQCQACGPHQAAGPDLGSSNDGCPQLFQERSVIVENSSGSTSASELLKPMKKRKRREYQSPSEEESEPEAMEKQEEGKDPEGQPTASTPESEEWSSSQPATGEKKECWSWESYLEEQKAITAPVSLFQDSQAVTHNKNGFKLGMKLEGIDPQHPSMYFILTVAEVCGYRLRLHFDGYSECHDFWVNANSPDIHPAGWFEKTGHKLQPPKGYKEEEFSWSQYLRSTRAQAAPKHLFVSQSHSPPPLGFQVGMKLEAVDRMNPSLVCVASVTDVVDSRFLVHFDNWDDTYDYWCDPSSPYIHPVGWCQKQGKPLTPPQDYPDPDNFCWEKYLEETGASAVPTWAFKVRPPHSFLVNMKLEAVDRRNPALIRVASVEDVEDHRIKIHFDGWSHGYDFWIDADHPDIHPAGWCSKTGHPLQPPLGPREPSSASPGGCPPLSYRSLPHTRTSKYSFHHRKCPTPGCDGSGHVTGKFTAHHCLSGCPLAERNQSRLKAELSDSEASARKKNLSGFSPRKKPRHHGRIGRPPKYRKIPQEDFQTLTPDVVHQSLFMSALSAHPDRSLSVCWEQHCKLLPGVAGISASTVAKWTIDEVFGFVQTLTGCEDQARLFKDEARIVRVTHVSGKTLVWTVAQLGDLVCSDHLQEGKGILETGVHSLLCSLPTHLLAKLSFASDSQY
# Experiment: qHTS Assay for the Inhibitors of L3MBTL1; note: nearly all actives have a fitted effect of over 60% in size
# Details: AlphaScreen L3MBTL1–H3K9me1 peptide binding; activity, negative = inhibition: at 57.1 µM (top of the series)
# Outline: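 AlphaScreen assay: L3MBTL1 (50 nM final) was preincubated 30 min at room temperature with biotinylated H3(1-15)K9me1 peptide (75 nM final), then 30 min with library compounds; streptavidin donor and nickel chelate acceptor beads (10 ug/mL final) added, 30 min dark.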
# % is set by controls: 0 for no effect and ±100 for the full control effect; potency is the fitted concentration of half-maximal effect; tags give direction and shape of the fitted curve.
Compound,"activity, negative = inhibition",Potency
Cc1ccc2nc(-c3ccc(NS(=O)(=O)c4ccc(F)c(F)c4)cc3)sc2c1,inactive: -11.9%,
O=C(c1ccc(C(F)(F)F)cc1)C1CCCN(C(=O)CCc2cnccn2)C1 (stereo not given),inactive: -4.82%,
NNc1ccccc1C(F)(F)F,,"inconclusive: 39.8 µM [inhibitor, single point]"
CCOc1cc(CNc2ccc(N3CCN(C(C)=O)CC3)cc2)cc(Br)c1OC,,"inconclusive: 39.8 µM [inhibitor, single point]"
O=C(NNc1nc2cc3c(cc2s1)OCCO3)c1ccccc1,inactive: -20.9%,
CCCCNS(=O)(=O)c1ccc(Br)cc1N1CCC[C@H]1CO,inactive: 11.7%,
CC1CCCCC1NC(=O)COC(=O)c1ccc([N+](=O)[O-])o1 (stereo not given),,"inconclusive: 28.2 µM [inhibitor, single point]"
Cc1cccc(N2CCN(C(=O)Cc3ccc(-n4c(=O)[nH]c5ccsc5c4=O)cc3)CC2)c1C,inactive: -10.6%,
COC(=O)c1cc2nc(-c3ccccc3)cc(C)n2n1,inactive: 6.47%,
CCOC(=O)C1=C(CNCCOc2ccc(OC)cc2)NC(=O)NC1c1ccc2c(c1)OCO2 (stereo not given),,"inconclusive: 0.126 µM [inhibitor, full curve, poor fit]"
O=C(O)c1ccc(NS(=O)(=O)c2ccc3c(c2)C(=O)c2ccccc2C3=O)cc1,inactive: -22.9%,
CCOc1ccc(OCCC(=O)OCC(=O)Nc2ccc3c(c2)OCO3)cc1,inactive: -0.633%,
CCN(CC)Cc1c(O)c(Cl)cc2c(C)cc(=O)oc12,,active: 22.4 µM
COc1ccc(S(=O)(=O)n2c([N+](=O)[O-])cnc2C)cc1OC,inactive: 10.3%,
COc1ccc(C(=O)NCCN2CCCC2)cc1[N+](=O)[O-],inactive: 1.24%,
Cc1ccc(-c2csc(=Nc3cccnc3)n2CCCn2ccnc2)cc1C,,"inconclusive: 39.8 µM [inhibitor, partial curve]"
O=c1[nH]c(/C=C\c2ccc(O)c(O)c2)nc(O)c1[N+](=O)[O-],,"inconclusive: 28.2 µM [inhibitor, single point]"
CCOc1cc(/C=N/NC(=O)COc2nc(C)cc(COC)c2C#N)ccc1O,inactive: -5.19%,
O=C(N/N=C\c1ccc([N+](=O)[O-])s1)c1cncc(Br)c1,,"inconclusive: 0.794 µM [inhibitor, single point]"
Cc1nn(-c2ccccn2)c2c1C(c1ccccc1Cl)C1=C(N2)c2ccccc2C1=O (stereo not given),,"inconclusive: 39.8 µM [inhibitor, single point]"
c1ccc(C2=Nn3c(Cn4nnc5ccccc54)nnc3SC2)cc1,inactive: -1.93%,
CCOC(=O)c1ccc2c(c1)C1C=CCC1C(C(=O)O)N2 (stereo not given),,active: 3.16 µM
CC(=O)Nc1ccc(S(=O)(=O)NNC(=O)COc2ccc(C)cc2)cc1,,"inconclusive: 7.08 µM [inhibitor, single point]"
Cn1cccc1C(=O)C(=O)Nc1ccc(Cl)cc1,inactive: -3.39%,
CC(Oc1cccc(Br)c1)C(=O)NNC(=O)CCNC(=O)c1ccccc1Cl (stereo not given),inactive: -0.612%,

Compound,"activity, negative = inhibition",Potency
Cc1c(Cl)cnc(NC(=O)COC(=O)c2ccncc2)c1Cl,,"inconclusive: 25.1 µM [inhibitor, single point]"
Cc1ccc2nc(COc3ccc(N(C)S(=O)(=O)c4ccccc4)cc3)cc(=O)n2c1,,"inconclusive: 25.1 µM [inhibitor, partial curve]"
CCN(CC)c1ccc(/C=C2/C(=O)c3ccc(C(=O)O)cc3C2=O)cc1,,active: 25.1 µM
Cc1ccc(-c2nnn(CC(=O)N(CC3CCCO3)C(C(=O)NC(C)(C)C)c3ccc(F)cc3)n2)o1 (stereo not given),,"inconclusive: 7.08 µM [inhibitor, single point]"
COC(=O)NC(NS(=O)(=O)c1ccccc1)(C(=O)OC)C(F)(F)F (stereo not given),,"inconclusive: 7.08 µM [inhibitor, single point]"
COc1cc(CC(=O)N2CCN(S(=O)(=O)c3ccc(C)cc3)CC2)cc(OC)c1OC,inactive: 5.26%,
O=C1C=C(N2CCOCC2)C2(CCCCC2)O1,,"inconclusive: 28.2 µM [inhibitor, partial curve]"
O=C(Oc1ccc([N+](=O)[O-])cc1)c1cc(-c2ccccc2)nc2ccccc12,inactive: 1.75%,
C=CCOc1c(OC)cc(/C=N/Nc2cccc(C(=O)O)c2)c(Br)c1Br,,"inconclusive: 31.6 µM [inhibitor, single point]"
Cc1ccc([C@H]2C(C(=O)O)=CC[C@@H](c3ccc(C(C)C)cc3)N2S(=O)(=O)c2ccc(C)cc2)cc1,inactive: -7.73%,
COc1ccccc1N1C(=O)CC(N2CCc3ccccc32)C1=O (stereo not given),,"inconclusive: 28.2 µM [inhibitor, single point]"
O=C(NCc1ccccc1)c1ccc(C2SCC(=O)N2Cc2ccccc2)cc1 (stereo not given),,"inconclusive: 6.31 µM [inhibitor, partial curve, poor fit]"
CCc1ccc(C2=NN(C(C)=O)C(c3ccco3)C2)cc1 (stereo not given),inactive: -11.1%,
Cc1ccccc1NC(=S)N/N=C/c1ccc(O)cc1O,,active: 31.6 µM
O=C(c1ccc([N+](=O)[O-])cc1)N1CCN(Cc2ccccc2)CC1,inactive: -9.79%,
COc1ccc(CN(C)CC2CCCN(CCc3ccc(F)cc3)C2)cc1OC (stereo not given),inactive: 1.74%,
CN1c2ccccc2Sc2cc(N)ccc21,,"inconclusive: 35.5 µM [inhibitor, single point]"
N#Cc1ccsc1NC(=O)CSc1ncnc2ccccc12,,"inconclusive: 6.31 µM [inhibitor, single point]"
COc1cc(CNCc2ccccn2)ccc1OCC(=O)NC1CCCCC1,,"inconclusive: 28.2 µM [inhibitor, partial curve]"
CCOC(=O)CNS(=O)(=O)c1cc(-c2nn(C)c(=O)c3ccccc23)ccc1C,,active: 28.2 µM
O=C(C1CC1)N1CCc2cc(Br)cc(S(=O)(=O)NCCCN3CCCC3)c21,inactive: -21.9%,
Cn1c(/C=N/NC(=O)c2ccccc2)nc2ccccc21,inactive: 3.5%,
COc1ccc(CNc2nc(-c3cccnc3)nn2C(=O)C(C)C)cc1,,"inconclusive: 0.631 µM [inhibitor, single point]"
O=C(NCCCn1ccnc1)Nc1cccc(Cl)c1,,"inconclusive: 39.8 µM [inhibitor, single point]"
O=C(CSc1nc2scc(-c3ccco3)c2c(=O)n1-c1ccccc1)NCC1CCCO1 (stereo not given),,"inconclusive: 2.51 µM [inhibitor, single point]"
